# Assay results: ChEMBL document CHEMBL5606460, “ASAP - DENV-2 NS2B-NS3 protease fluorescence single point” (2024)
# Screen size: about 2,000 compounds; about 110 (5.5%) showed an effect of 50% or more. The list shows a part of the results.
# Target: Genome polyprotein (dengue virus type 2) (UniProt P29990)
# [1] = Thailand/16681/1984, Concentration 25.0 uM, Number of replicates 1.0
compound,measurement,setting,value
O=Cc1ccc(N2CCC(C(=O)Nc3cc(Cl)nc(Cl)n3)CC2)cc1,inhibition,[1],9.01%
O=C(c1ccn([C@H]2CCCNC2)n1)N1CC[C@H](c2cc(O)[nH]n2)C1,inhibition,"Thailand/16681/1984, Concentration 49.5 uM, Number of replicates 2.0, Standard deviation 1.1637955331347074 %",-0.564%
same,inhibition,"Thailand/16681/1984, Concentration 99.01 uM, Number of replicates 2.0, Standard deviation 1.9960173414682696 %",-0.647%
same,inhibition,"Thailand/16681/1984, Concentration 198.0 uM, Number of replicates 2.0, Standard deviation 0.8228288352338786 %",0.485%
CC(=O)Nc1ccc(NC(=O)C2CCN(c3ccc(C=O)cc3)CC2)cc1,inhibition,[1],11.7%
CN(C(=O)OC(C)(C)C)[C@H]1CCN(C(=O)C2CCN(c3ccc(C=O)cc3)CC2)C1,inhibition,[1],13.2%
COc1cc(Cc2ccc3c(c2)NC(=O)CO3)nc(N2CCNCC2)n1,inhibition,"Thailand/16681/1984, Concentration 49.5 uM, Number of replicates 2.0, Standard deviation 1.2735661360709365 %",0.402%
same,inhibition,"Thailand/16681/1984, Concentration 99.01 uM, Number of replicates 2.0, Standard deviation 1.0906950907733215 %",1.21%
same,inhibition,"Thailand/16681/1984, Concentration 198.0 uM, Number of replicates 2.0, Standard deviation 1.0672920626867075 %",3.16%
CCN(CCNC(=O)C1CCN(c2ccc(C=O)cc2)CC1)c1cccc(C)c1,inhibition,[1],11.3%
Cc1cc(CO)c2cccc(NC(=O)c3nc(N)n[nH]3)c2n1,inhibition,"Thailand/16681/1984, Concentration 49.95 uM, Number of replicates 2.0, Standard deviation 1.7045480288991801 %",42.6%
same,inhibition,"Thailand/16681/1984, Concentration 99.9 uM, Number of replicates 2.0, Standard deviation 15.015963199334223 %",67.3%
CC(C)(CO)NC(=O)c1cc(Cl)cc(OCc2ccccn2)c1,inhibition,"Thailand/16681/1984, Concentration 49.5 uM, Number of replicates 2.0, Standard deviation 3.9117339361958243 %",-3.57%
same,inhibition,"Thailand/16681/1984, Concentration 99.01 uM, Number of replicates 2.0, Standard deviation 3.9139588683287148 %",-3.56%
same,inhibition,"Thailand/16681/1984, Concentration 198.0 uM, Number of replicates 2.0, Standard deviation 3.978479645326132 %",-2.33%
Nc1nc(-c2ccccn2)nc2ccccc12,inhibition,"Thailand/16681/1984, Concentration 49.95 uM, Number of replicates 2.0, Standard deviation 3.830091149504826 %",-6.86%
same,inhibition,"Thailand/16681/1984, Concentration 99.9 uM, Number of replicates 2.0, Standard deviation 4.2800616938003495 %",-7.08%
c1cc(CN2CCC(c3c[nH]c4cccnc34)CC2)c2[nH]ncc2c1,inhibition,"Thailand/16681/1984, Concentration 49.5 uM, Number of replicates 2.0, Standard deviation 0.13607564437452646 %",-0.037%
same,inhibition,"Thailand/16681/1984, Concentration 99.01 uM, Number of replicates 2.0, Standard deviation 0.023091583949542666 %",1.23%
same,inhibition,"Thailand/16681/1984, Concentration 198.0 uM, Number of replicates 2.0, Standard deviation 0.3422509545218043 %",2.24%
Cn1cc(NC(=O)c2ccccc2C(F)(F)F)c(-c2ccc(F)nc2)n1,inhibition,"Thailand/16681/1984, Concentration 49.5 uM, Number of replicates 2.0, Standard deviation 3.6499634215033607 %",-3.01%
same,inhibition,"Thailand/16681/1984, Concentration 99.01 uM, Number of replicates 2.0, Standard deviation 1.5811035342397435 %",-2.37%
same,inhibition,"Thailand/16681/1984, Concentration 198.0 uM, Number of replicates 2.0, Standard deviation 0.8634737807980869 %",-2.26%
Cc1cc(CO)c2cccc(NC(=O)c3ccc(O)cc3)c2n1,inhibition,"Thailand/16681/1984, Concentration 49.95 uM, Number of replicates 2.0, Standard deviation 1.602531076316379 %",8.29%
same,inhibition,"Thailand/16681/1984, Concentration 99.9 uM, Number of replicates 2.0, Standard deviation 2.1632817459370886 %",14.7%
NC(=O)C1(NC(=O)[C@]2(c3ccc(F)cc3)CCCNC2)CCOCC1,inhibition,"Thailand/16681/1984, Concentration 49.5 uM, Number of replicates 2.0, Standard deviation 9.453822696514678 %",13.2%
same,inhibition,"Thailand/16681/1984, Concentration 99.01 uM, Number of replicates 2.0, Standard deviation 0.7804642139567288 %",-6.29%
same,inhibition,"Thailand/16681/1984, Concentration 198.0 uM, Number of replicates 2.0, Standard deviation 0.1899767510754608 %",-3.96%
COc1cc2c(cc1NC(=O)C1CCN(c3ccc(C=O)cc3)CC1)oc1ccccc12,inhibition,[1],14.1%
CCc1cccc(S(=O)(=O)Nc2ccc(Cl)cc2C(=O)NC)c1,inhibition,"Thailand/16681/1984, Concentration 49.5 uM, Number of replicates 2.0, Standard deviation 0.31892086155653854 %",0.409%
same,inhibition,"Thailand/16681/1984, Concentration 99.01 uM, Number of replicates 2.0, Standard deviation 0.4824817381530084 %",0.666%
same,inhibition,"Thailand/16681/1984, Concentration 198.0 uM, Number of replicates 2.0, Standard deviation 0.7239504320191382 %",1.73%
O=Cc1ccc(N2CCC(C(=O)Nc3ccc4ccccc4c3O)CC2)cc1,inhibition,[1],22.9%
O=Cc1ccc(N2CCC(C(=O)N3CCN(CCOCCO)CC3)CC2)cc1,inhibition,[1],12.7%
O=Cc1ccc(N2CCC(C(=O)N3CCC(C(F)(F)F)CC3)CC2)cc1,inhibition,[1],14.9%
COc1cccc(OCCCNC(=O)C2CCN(c3ccc(C=O)cc3)CC2)c1,inhibition,[1],9.09%
C[C@H]1CN(Cc2ccccc2)CCN1C(=O)C1CCN(c2ccc(C=O)cc2)CC1,inhibition,[1],14.9%
COc1nccc(-c2nn(C)cc2NC(=O)c2ccccc2C(F)(F)F)c1F,inhibition,"Thailand/16681/1984, Concentration 49.5 uM, Number of replicates 2.0, Standard deviation 2.2857135361205057 %",-3.27%
same,inhibition,"Thailand/16681/1984, Concentration 99.01 uM, Number of replicates 2.0, Standard deviation 3.896359145180687 %",-1.87%
same,inhibition,"Thailand/16681/1984, Concentration 198.0 uM, Number of replicates 2.0, Standard deviation 6.149202607028637 %",-0.776%
N[C@H]1CC[C@H](NC(=O)[C@@H](NC(=O)OCc2ccccc2)c2ccc(OCc3ccccc3)cc2)C1,inhibition,"Thailand/16681/1984, Concentration 49.5 uM, Number of replicates 2.0, Standard deviation 0.9979193615621401 %",-9.06%
same,inhibition,"Thailand/16681/1984, Concentration 49.5 uM, Number of replicates 2.0, Standard deviation 5.780389191288721 %",-6.13%
same,inhibition,"Thailand/16681/1984, Concentration 99.01 uM, Number of replicates 2.0, Standard deviation 0.21863424783935215 %",-6.77%
same,inhibition,"Thailand/16681/1984, Concentration 99.01 uM, Number of replicates 2.0, Standard deviation 4.8738871027899835 %",-4.83%
same,inhibition,"Thailand/16681/1984, Concentration 198.0 uM, Number of replicates 2.0, Standard deviation 0.20009536646595624 %",3.56%
same,inhibition,"Thailand/16681/1984, Concentration 198.0 uM, Number of replicates 2.0, Standard deviation 2.9330264990309507 %",6.71%
Cc1sc(NC(=O)C2CCN(c3ccc(C=O)cc3)CC2)nc1-c1ccc(Cl)cc1,inhibition,[1],14.7%
Cc1cnc(NC(=O)C2CCN(c3ccc(C=O)cc3)CC2)c([N+](=O)[O-])c1,inhibition,[1],14.4%
Cc1cc(NC(=O)C2CCN(c3ccc(C=O)cc3)CC2)c(Cl)cc1F,inhibition,[1],12.9%
Cc1c(C2CCN(C(=O)OC(C)(C)C)CC2)cnn1CC(=O)N[C@H]1CCS(=O)(=O)C1,inhibition,"Thailand/16681/1984, Concentration 49.5 uM, Number of replicates 2.0, Standard deviation 2.1490874038550443 %",-2%
same,inhibition,"Thailand/16681/1984, Concentration 99.01 uM, Number of replicates 2.0, Standard deviation 2.4294495888486636 %",-2.38%
same,inhibition,"Thailand/16681/1984, Concentration 198.0 uM, Number of replicates 2.0, Standard deviation 2.506735571515394 %",-2.55%
NCc1cn([C@H]2CCCN(C(=O)c3cccc4cn[nH]c34)C2)nn1,inhibition,"Thailand/16681/1984, Concentration 49.5 uM, Number of replicates 2.0, Standard deviation 0.5240237372409225 %",-1.58%
same,inhibition,"Thailand/16681/1984, Concentration 99.01 uM, Number of replicates 2.0, Standard deviation 1.5059779963935036 %",-1.12%
same,inhibition,"Thailand/16681/1984, Concentration 198.0 uM, Number of replicates 2.0, Standard deviation 0.5927394954377506 %",-1.28%
O=C(Nc1nc(CO)cs1)[C@]1(c2ccc(F)cc2)CCCNC1,inhibition,"Thailand/16681/1984, Concentration 49.5 uM, Number of replicates 2.0, Standard deviation 1.5147159258078087 %",0.359%
same,inhibition,"Thailand/16681/1984, Concentration 99.01 uM, Number of replicates 2.0, Standard deviation 0.700183486969057 %",2.21%
same,inhibition,"Thailand/16681/1984, Concentration 198.0 uM, Number of replicates 2.0, Standard deviation 0.48828590710198916 %",2.6%
Cn1cc2ccc(C(=O)N3CC[C@H](c4c[nH]c5ccccc45)C3)cc2n1,inhibition,"Thailand/16681/1984, Concentration 49.5 uM, Number of replicates 2.0, Standard deviation 1.3492181697145964 %",-0.744%
same,inhibition,"Thailand/16681/1984, Concentration 99.01 uM, Number of replicates 2.0, Standard deviation 0.35485686617717016 %",1.18%
same,inhibition,"Thailand/16681/1984, Concentration 198.0 uM, Number of replicates 2.0, Standard deviation 0.7962509061223633 %",4.41%
O=Cc1ccc(N2CCC(C(=O)N[C@@H](CC(=O)N3CCn4c(nnc4C(F)(F)F)C3)Cc3cc(F)c(F)cc3F)CC2)cc1,inhibition,[1],-0.377%
c1ccc2c(CN3CCC(c4cscn4)CC3)c[nH]c2c1,inhibition,"Thailand/16681/1984, Concentration 49.5 uM, Number of replicates 2.0, Standard deviation 0.8952803214953182 %",-4.85%
same,inhibition,"Thailand/16681/1984, Concentration 99.01 uM, Number of replicates 2.0, Standard deviation 0.9816046536783611 %",-3.3%
same,inhibition,"Thailand/16681/1984, Concentration 198.0 uM, Number of replicates 2.0, Standard deviation 1.533367781808638 %",-1.56%
O=Cc1ccc(N2CCC(C(=O)Nc3ccc([N+](=O)[O-])cc3Cl)CC2)cc1,inhibition,[1],23.5%
Cc1cc(CO)c2cccc(Nc3cncc(C(=O)O)c3)c2n1,inhibition,"Thailand/16681/1984, Concentration 49.95 uM, Number of replicates 2.0, Standard deviation 0.9951639691938919 %",14%
same,inhibition,"Thailand/16681/1984, Concentration 99.9 uM, Number of replicates 2.0, Standard deviation 2.420687048309006 %",24.2%
O=Cc1ccc(N2CCC(C(=O)NCc3cc(C(F)(F)F)ccc3C(F)(F)F)CC2)cc1,inhibition,[1],1.04%
Cc1cc(CO)c2cccc(Cc3ccccc3C(=O)NCc3c(C)noc3C)c2n1,inhibition,"Thailand/16681/1984, Concentration 49.95 uM, Number of replicates 2.0, Standard deviation 0.3226747127660098 %",-0.757%
same,inhibition,"Thailand/16681/1984, Concentration 99.9 uM, Number of replicates 2.0, Standard deviation 0.21847019123152348 %",0.39%
COc1cc(CS(=O)(=O)CCC(C)(C)OC)nc(N2CCNCC2)n1,inhibition,"Thailand/16681/1984, Concentration 49.5 uM, Number of replicates 2.0, Standard deviation 0.83675183590521 %",1.79%
same,inhibition,"Thailand/16681/1984, Concentration 99.01 uM, Number of replicates 2.0, Standard deviation 0.5045439696213695 %",1.85%
same,inhibition,"Thailand/16681/1984, Concentration 198.0 uM, Number of replicates 2.0, Standard deviation 0.3376271923590682 %",1.15%
CNC(=O)c1cc(Cl)ccc1NS(=O)(=O)c1cnn(-c2ccccc2)c1,inhibition,"Thailand/16681/1984, Concentration 49.5 uM, Number of replicates 2.0, Standard deviation 1.1925793018567374 %",-3.02%
same,inhibition,"Thailand/16681/1984, Concentration 99.01 uM, Number of replicates 2.0, Standard deviation 1.756579156322849 %",-7.26%
